# Experimental data from the supplement of paper PMC4604168 (melanoma cell lines).
# Some of the results follow. Most values come without repeats; read them as rough.
# Columns and labels:
# Assay in all cases: cell count relative to DMSO control; melanoma cells; higher = more viable cells
# Settings in all cases: library dose: low library concentration; 72 h
# [1] = system: COLO792
# [2] = system: COLO800
# [3] = system: COLO829
# [4] = system: G361
# [5] = system: IPC-298
# [6] = system: IST-MEL1
# [7] = system: LB2518-MEL
# [8] = system: LOXIMVI
# [9] = system: MEL-HO
# 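Note: cell number obtained by counting DAPI-stained nuclei in high-throughput microscope images with image analysis software, screen run in 1,536-well plates.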
Structure (SMILES),cell count [1],cell count [2],cell count [3],cell count [4],cell count [5],cell count [6],cell count [7],cell count [8],cell count [9]
"CN1CCN(c2ccc3nc(-c4c(N)c5c(F)cccc5[nH]c4=O)[nH]c3c2)CC1 [Dovitinib] + CN(C)S(=O)(=O)c1ccc2c(c1)/C(=C/c1cc3c([nH]1)CCCC3)C(=O)N2 [SU6656] (first compound 0.1 µM, partner dose 0.4 µM)",78.6%,82.6%,84.5%,90.4%,92.3%,102%,83.9%,170%,98.3%
"CN1CCN(c2ccc3nc(-c4c(N)c5c(F)cccc5[nH]c4=O)[nH]c3c2)CC1 [Dovitinib] + NC(=O)Nc1cc(-c2cccc(F)c2)sc1C(=O)N[C@H]1CCCNC1 [AZD7762] (first compound 0.1 µM, partner dose 0.02 µM)",102%,75.6%,95.3%,102%,104%,105%,132%,149%,106%
"C=CCNC1=C2C[C@@H](C)C[C@H](OC)[C@H](O)[C@@H](C)/C=C(\C)[C@H](OC(N)=O)[C@@H](OC)/C=C\C=C(/C)C(=O)NC(=CC1=O)C2=O [Tanespimycin] + Oc1cc(-c2nc(-c3ccccc3)[nH]c2-c2ccncc2)ccc1Cl [L779450] (first compound 0.002 µM, partner dose 0.2 µM)",97.4%,91.8%,93.6%,95.6%,85%,93.3%,97.8%,126%,81.8%
"CNC(=O)c1cc(Oc2ccc(NC(=O)Nc3ccc(Cl)c(C(F)(F)F)c3)cc2)ccn1 [sorafenib] + O=C(O)c1ccc(-c2c[nH]c3ncc(-c4ccccc4)cc23)cc1C1CCCC1 [GSK650394] (first compound 0.4 µM, partner dose 0.16 µM)",115%,112%,93.8%,99.9%,97.5%,100%,116%,108%,99.9%
"CN1CCN(c2ccc3nc(-c4c(N)c5c(F)cccc5[nH]c4=O)[nH]c3c2)CC1 [Dovitinib] + OCCn1cc(-c2cnc3nnn(Cc4ccc5ncccc5c4)c3n2)cn1 [PF04217903] (first compound 0.1 µM, partner dose 1 µM)",93.7%,67.8%,94.7%,102%,98.5%,98.5%,81.9%,117%,105%
"C[C@@H](Oc1cc(-c2cnn(C3CCNCC3)c2)cnc1N)c1c(Cl)ccc(F)c1Cl [Crizotinib] + C=CCn1c(=O)c2cnc(Nc3ccc(N4CCN(C)CC4)cc3)nc2n1-c1cccc(C(C)(C)O)n1 [MK1775] (first compound 0.2 µM, partner dose 0.02 µM)",109%,78.3%,102%,87.8%,96.3%,92%,73.3%,102%,88.7%
"CNC(=O)c1cc(Oc2ccc(NC(=O)Nc3ccc(Cl)c(C(F)(F)F)c3)cc2)ccn1 [sorafenib] + O=C(CCCCCCC(=O)Nc1ccccc1)NO [vorinostat] (first compound 0.4 µM, partner dose 0.08 µM)",116%,131%,103%,99.1%,92.1%,93.6%,106%,59.5%,85.1%
"CN1CCN(c2ccc3nc(-c4c(N)c5c(F)cccc5[nH]c4=O)[nH]c3c2)CC1 [Dovitinib] + O=C(O)C(=O)Nc1sc2c(c1C(=O)O)CCNC2 [TCS401] (first compound 0.1 µM, partner dose 1.66667 µM)",116%,116%,103%,88.6%,93.1%,103%,89.1%,108%,94.5%
"C[C@@H](Oc1cc(-c2cnn(C3CCNCC3)c2)cnc1N)c1c(Cl)ccc(F)c1Cl [Crizotinib] + Cc1ccc(NC(=O)c2cccc(N(C)C)c2)cc1NC(=O)c1ccc(O)cc1 [ZM336372] (first compound 0.2 µM, partner dose 2 µM)",97.8%,72.8%,93%,86.2%,78.8%,97.7%,85.1%,104%,77.7%
"CN1CCN(c2ccc3nc(-c4c(N)c5c(F)cccc5[nH]c4=O)[nH]c3c2)CC1 [Dovitinib] + COc1cc2c(Oc3ccc4[nH]c(C)cc4c3F)ncnc2cc1OCCCN1CCCC1 [cediranib] (first compound 0.1 µM, partner dose 0.4 µM)",87.1%,109%,90.9%,92.8%,94%,94.1%,85.3%,111%,90.5%
"CN1CCN(c2ccc3nc(-c4c(N)c5c(F)cccc5[nH]c4=O)[nH]c3c2)CC1 [Dovitinib] + COc1ccc2c(c1)CCC1C2CCC2(C)C(NCCCCCCN3C(=O)C=CC3=O)CCC12 [U73122] (first compound 0.1 µM, partner dose 0.4 µM)",102%,54.2%,85.2%,106%,108%,97.8%,113%,143%,82.1%
